The target of this test is CRBN(delta 1-40)/DDB1(delta BPB) (Homo sapiens, UniProt Q96SW2). Put plainly: Covalent labeling of CRBN, intact protein mass spectrometry. To be noted: 15 μM protein stock, 6 h at room temperature; for % modified (15 μM): 15 μM compound; for % modified (150 μM): 150 μM compound.

In the case of `O=C1CCC(Oc2cccc(S(=O)(=O)F)c2)C(=O)N1` (stereo not shown) [Compound A-1, 3-((2,6-dioxopiperidin-3-yl)oxy)benzenesulfonyl fluoride], the “% modified (15 μM)” value is “++++ (≥20% and <40%= ++++)”; the “% modified (150 μM)” value is “++++ (≥20% and <40%= ++++)”.

As for `O=C1CCC(N2C(=O)c3ccc(OS(=O)(=O)F)cc3C2=O)C(=O)N1` (stereo not shown) [Compound A-2, 2-(2,6-dioxopiperidin-3-yl)-1,3-dioxoisoindolin-5-yl sulfurofluoridate], the “% modified (15 μM)” value was “++++ (≥20% and <40%= ++++)”; the “% modified (150 μM)” value is “++++++ (≥60% and <80% = ++++++)”.

Turning to `O=C1CCC(N2C(=O)c3ccc(S(=O)(=O)F)cc3C2=O)C(=O)N1` (stereo not shown) [Compound A-3, 2-(2,6-dioxo-3-piperidyl)-1,3-dioxo-isoindoline-5-sulfonyl fluoride], the “% modified (15 μM)” value is recorded as “+ (<5% = +)” and the “% modified (150 μM)” value was “+ (<5% = +)”.

`O=C1CCC(N2Cc3ccc(S(=O)(=O)F)cc3C2=O)C(=O)N1` (stereo not shown) [Compound A-4, 2-(2,6-dioxopiperidin-3-yl)-3-oxoisoindoline-5-sulfonyl fluoride]: the “% modified (15 μM)” value is “+++++ (≥40% and <60% = +++++)”; the “% modified (150 μM)” value is “++++++ (≥60% and <80% = ++++++)”.

Take `O=C1CCC(Oc2cccc(OS(=O)(=O)F)c2)C(=O)N1` (stereo not shown) [Compound A-5, 3-((2,6-dioxopiperidin-3-yl)oxy)phenyl sulfurofluoridate]: the “% modified (15 μM)” value is “++++ (≥20% and <40%= ++++)”; the “% modified (150 μM)” value is “+++++ (≥40% and <60% = +++++)”.

In the case of `O=C1CCC(N2C(=O)c3cc(S(=O)(=O)F)cc4cccc2c34)C(=O)N1` (stereo not shown) [Compound A-6, 1-(2,6-dioxopiperidin-3-yl)-2-oxo-1,2-dihydrobenzo[cd]indole-4-sulfonyl fluoride], the “% modified (15 μM)” value was “++++++ (≥60% and <80% = ++++++)”; the “% modified (150 μM)” value is “++++++ (≥60% and <80% = ++++++)”.

With `O=C1CCC(N2C(=O)c3cc(OS(=O)(=O)F)cc4cccc2c34)C(=O)N1` (stereo not shown) [Compound A-7, 1-(2,6-dioxopiperidin-3-yl)-2-oxo-1,2-dihydrobenzo[cd]indol-4-yl sulfurofluoridate], the “% modified (15 μM)” value was “+++++ (≥40% and <60% = +++++)”; the “% modified (150 μM)” value is “++++++ (≥60% and <80% = ++++++)”.

For `Cn1nc(N2CCC(=O)NC2=O)c2cccc(S(=O)(=O)F)c21` [Compound A-10, 3-(2,4-dioxotetrahydropyrimidin-1(2H)-yl)-1-methyl-1H-indazole-7-sulfonyl fluoride], the “% modified (15 μM)” value was “+++++ (≥40% and <60% = +++++)”; the “% modified (150 μM)” value was “+++++ (≥40% and <60% = +++++)”.

Take `CN(c1cccc(S(=O)(=O)F)c1)C1CCC(=O)NC1=O` (stereo not shown) [Compound A-11, 3-((2,6-dioxopiperidin-3-yl)(methyl)amino)benzenesulfonyl fluoride]: the “% modified (15 μM)” value is “+++++ (≥40% and <60% = +++++)”; the “% modified (150 μM)” value is “++++++ (≥60% and <80% = ++++++)”.

For the molecule `O=C1CCC(c2ccc(S(=O)(=O)F)cc2)C(=O)N1` (stereo not shown) [Compound A-12, 4-(2,6-dioxopiperidin-3-yl)benzenesulfonyl fluoride], the “% modified (15 μM)” value is “+++++ (≥40% and <60% = +++++)”; the “% modified (150 μM)” value is “++++++ (≥60% and <80% = ++++++)”.

As for `Cc1ccc(OC2CCC(=O)NC2=O)cc1S(=O)(=O)F` (stereo not shown) [Compound A-13, 5-[(2,6-dioxo-3-piperidyl)oxy]-2-methyl-benzenesulfonyl fluoride], the “% modified (15 μM)” value was “++++ (≥20% and <40%= ++++)”; the “% modified (150 μM)” value was “+++++ (≥40% and <60% = +++++)”.

Regarding `O=C1CCN(c2ccc(S(=O)(=O)F)cc2)C(=O)N1` [Compound A-14, 4-(2,4-dioxotetrahydropyrimidin-1(2H)-yl)benzenesulfonyl fluoride], the “% modified (15 μM)” value is “+++++ (≥40% and <60% = +++++)”; the “% modified (150 μM)” value is listed as “+++++++ (≥80% = +++++++)”.

In the case of `O=C1CCN(c2ccc(OS(=O)(=O)F)cc2)C(=O)N1` [Compound A-15, 4-(2,4-dioxotetrahydropyrimidin-1(2H)-yl)phenyl sulfurofluoridate], the “% modified (15 μM)” value is given as “+ (<5% = +)” and the “% modified (150 μM)” value is on record as “+ (<5% = +)”.

For the molecule `COc1ccc(OC2CCC(=O)NC2=O)cc1S(=O)(=O)F` (stereo not shown) [Compound A-16, 5-[(2,6-dioxo-3-piperidyl)oxy]-2-methoxy-benzenesulfonyl fluoride], the “% modified (15 μM)” value is on record as “+++++++ (≥80% = +++++++)” and the “% modified (150 μM)” value was “+++++++ (≥80% = +++++++)”.

As for `Cc1cc(OC2CCC(=O)NC2=O)cc(S(=O)(=O)F)c1` (stereo not shown) [Compound A-17, 3-[(2,6-dioxo-3-piperidyl)oxy]-5-methyl-benzenesulfonyl fluoride], the “% modified (15 μM)” value was “++++ (≥20% and <40%= ++++)”; the “% modified (150 μM)” value was “+++++ (≥40% and <60% = +++++)”.

For the molecule `CN(c1cccc(OS(=O)(=O)F)c1)C1CCC(=O)NC1=O` (stereo not shown) [Compound A-18, 3-((2,6-dioxopiperidin-3-yl)(methyl)amino)phenyl sulfurofluoridate], the “% modified (15 μM)” value is reported as “+ (<5% = +)” and the “% modified (150 μM)” value is reported as “+ (<5% = +)”.

Take `Cc1ccc(OC2CCC(=O)NC2=O)cc1OS(=O)(=O)F` (stereo not shown) [Compound A-19, 5-((2,6-dioxopiperidin-3-yl)oxy)-2-methylphenyl sulfurofluoridate]: the “% modified (15 μM)” value is “++++ (≥20% and <40%= ++++)”; the “% modified (150 μM)” value is “+++++++ (≥80% = +++++++)”.

Turning to `Cc1cc(OC2CCC(=O)NC2=O)cc(OS(=O)(=O)F)c1` (stereo not shown) [Compound A-20, 3-((2,6-dioxopiperidin-3-yl)oxy)-5-methylphenyl sulfurofluoridate], the “% modified (15 μM)” value was “+++ (≥10% and <20% = +++)”; the “% modified (150 μM)” value is “++++ (≥20% and <40%= ++++)”.

As to `COc1cc(OC2CCC(=O)NC2=O)cc(OS(=O)(=O)F)c1` (stereo not shown) [Compound A-21, 3-(3-fluorosulfonyloxy-5-methoxy-phenoxy)-2,6-dioxo-piperidine], the “% modified (15 μM)” value was “+++ (≥10% and <20% = +++)”; the “% modified (150 μM)” value was “+++++ (≥40% and <60% = +++++)”.

In the case of `COc1cc(OC2CCC(=O)NC2=O)cc(S(=O)(=O)F)c1` (stereo not shown) [Compound A-22, 3-((2,6-dioxopiperidin-3-yl)oxy)-5-methoxybenzenesulfonyl fluoride], the “% modified (15 μM)” value was “++ (≥5% and <10% = ++)”; the “% modified (150 μM)” value is “+++ (≥10% and <20% = +++)”.

Take `O=C1CCC(c2cccc(OS(=O)(=O)F)c2)C(=O)N1` (stereo not shown) [Compound A-23, 3-(2,6-dioxopiperidin-3-yl)phenyl sulfurofluoridate]: the “% modified (15 μM)” value is “+ (<5% = +)” and the “% modified (150 μM)” value was “+ (<5% = +)”.

As for `O=C1CCC(CNc2cccc(S(=O)(=O)F)c2)C(=O)N1` (stereo not shown) [Compound A-24, 3-(((2,6-dioxopiperidin-3-yl)methyl)amino)benzenesulfonyl fluoride], the “% modified (15 μM)” value is “+++++ (≥40% and <60% = +++++)”; the “% modified (150 μM)” value is “++++++ (≥60% and <80% = ++++++)”.

As to `O=C1CCC(c2ccc(OS(=O)(=O)F)cc2)C(=O)N1` (stereo not shown) [Compound A-25, 4-(2,6-dioxopiperidin-3-yl)phenyl sulfurofluoridate], the “% modified (15 μM)” value is recorded as “+ (<5% = +)”; the “% modified (150 μM)” value is “++ (≥5% and <10% = ++)”.

In the case of `CN1C(=O)CCC(N2C(=O)c3ccc(OS(=O)(=O)F)cc3C2=O)C1=O` (stereo not shown) [Compound A-26, 2-(1-methyl-2,6-dioxopiperidin-3-yl)-1,3-dioxoisoindolin-5-yl sulfurofluoridate], the “% modified (15 μM)” value is reported as “+ (<5% = +)” and the “% modified (150 μM)” value is “+ (<5% = +)”.

For `COc1ccc(OC2CCC(=O)NC2=O)cc1OS(=O)(=O)F` (stereo not shown) [Compound A-27, 5-((2,6-dioxopiperidin-3-yl)oxy)-2-methoxyphenyl sulfurofluoridate], the “% modified (15 μM)” value is on record as “+ (<5% = +)”; the “% modified (150 μM)” value was “++++++ (≥60% and <80% = ++++++)”.

In the case of `O=C1CCC(Oc2ccc(OS(=O)(=O)F)cn2)C(=O)N1` (stereo not shown) [Compound A-28, 6-((2,6-dioxopiperidin-3-yl)oxy)pyridin-3-yl sulfurofluoridate], the “% modified (15 μM)” value was “+ (<5% = +)” and the “% modified (150 μM)” value is “+ (<5% = +)”.

In the case of `O=C1CCC(n2c(=O)oc3c(S(=O)(=O)F)cccc32)C(=O)N1` (stereo not shown) [Compound A-29, 3-(2,6-dioxopiperidin-3-yl)-2-oxo-2,3-dihydrobenzo[d]oxazole-7-sulfonyl fluoride], the “% modified (15 μM)” value is given as “+ (<5% = +)” and the “% modified (150 μM)” value is “+ (<5% = +)”.

Consider `Cn1nc(N2CCC(=O)NC2=O)c2cccc(OS(=O)(=O)F)c21` [Compound A-30, 3-(2,4-dioxotetrahydropyrimidin-1(2H)-yl)-1-methyl-1H-indazol-7-yl sulfurofluoridate], for which the “% modified (15 μM)” value is listed as “+ (<5% = +)”; the “% modified (150 μM)” value was “++++ (≥20% and <40%= ++++)”.

For `O=C1NC(=O)C2(Nc3ccc(S(=O)(=O)F)cc3)CC1C2` [Compound A-33, 4-((2,4-dioxo-3-azabicyclo[3.1.1]heptan-1-yl)amino)benzenesulfonyl fluoride], the “% modified (15 μM)” value was “+ (<5% = +)” and the “% modified (150 μM)” value is reported as “+ (<5% = +)”.

In the case of `O=C1NC(=O)C2(c3ccc(S(=O)(=O)F)cc3)CC1C2` [Compound A-34, 4-(2,4-dioxo-3-azabicyclo[3.1.1]heptan-1-yl)benzenesulfonyl fluoride], the “% modified (15 μM)” value is listed as “+ (<5% = +)”; the “% modified (150 μM)” value is “++ (≥5% and <10% = ++)”.

As to `O=C1CCN(c2ccc(C3CCNCC3)c(OS(=O)(=O)F)c2)C(=O)N1` [Compound A-35, 5-(2,4-dioxotetrahydropyrimidin-1(2H)-yl)-2-(piperidin-4-yl)phenyl sulfurofluoridate], the “% modified (15 μM)” value is “+ (<5% = +)” and the “% modified (150 μM)” value was “+ (<5% = +)”.

For the molecule `O=C1CCC(c2ccc(N3CCNCC3)c(OS(=O)(=O)F)c2)C(=O)N1` (stereo not shown) [Compound A-36, 5-(2,6-dioxopiperidin-3-yl)-2-(piperazin-1-yl)phenyl sulfurofluoridate], the “% modified (15 μM)” value is listed as “+ (<5% = +)” and the “% modified (150 μM)” value is “+ (<5% = +)”.

Values taken from patent US20260274856A1, “COVALENT CEREBLON LIGANDS” (C4 THERAPEUTICS, INC., priority 2023, published 2026).
